Data from paper PMC3726058 (European journal of pharmacology, 2010).

Target: σ1 receptor (Rattus norvegicus, UniProt Q9R0C9)
Assay: SN56 competition versus [^3H]
Format: binding

UniProt Q9R0C9, sequence (Q9R0C9 whole entry): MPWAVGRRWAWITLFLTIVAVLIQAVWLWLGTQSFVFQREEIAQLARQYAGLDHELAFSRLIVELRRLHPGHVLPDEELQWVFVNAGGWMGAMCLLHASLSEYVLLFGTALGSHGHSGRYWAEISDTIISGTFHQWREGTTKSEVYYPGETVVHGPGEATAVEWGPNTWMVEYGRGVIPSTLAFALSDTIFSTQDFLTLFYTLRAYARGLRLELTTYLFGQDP

**Q.** How did the Ki turn out when `CCCc1ccc2c(c1)sc(=O)n2CCN1CCCCCC1` [SN56, 3-(2-(azepan-1-yl)ethyl)-6-propylbenzo[d]thiazol-2(3H)-one] was run?
**A.** Its Ki is 0.38 nM.
